# According to paper PMC4336329 (PLoS ONE, 2015):
# Hit rate of the full screen: of about 310,000 compounds, about 14,000 (4.5%) showed an effect of 50% or more. The effect is printed as a negative number. This is one part of the list.
# Target: human ether-à-go-go-related gene (hERG) potassium channel (human, UniProt Q12809)
# Experiment: primary screen, population patch clamp on CHO cells stably expressing hERG
# 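Further: peak tail current of the secondary pulse compared with the same well before compound.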
# Sequence of human ether-à-go-go-related gene (hERG) potassium channel (Q12809 whole entry, looked up): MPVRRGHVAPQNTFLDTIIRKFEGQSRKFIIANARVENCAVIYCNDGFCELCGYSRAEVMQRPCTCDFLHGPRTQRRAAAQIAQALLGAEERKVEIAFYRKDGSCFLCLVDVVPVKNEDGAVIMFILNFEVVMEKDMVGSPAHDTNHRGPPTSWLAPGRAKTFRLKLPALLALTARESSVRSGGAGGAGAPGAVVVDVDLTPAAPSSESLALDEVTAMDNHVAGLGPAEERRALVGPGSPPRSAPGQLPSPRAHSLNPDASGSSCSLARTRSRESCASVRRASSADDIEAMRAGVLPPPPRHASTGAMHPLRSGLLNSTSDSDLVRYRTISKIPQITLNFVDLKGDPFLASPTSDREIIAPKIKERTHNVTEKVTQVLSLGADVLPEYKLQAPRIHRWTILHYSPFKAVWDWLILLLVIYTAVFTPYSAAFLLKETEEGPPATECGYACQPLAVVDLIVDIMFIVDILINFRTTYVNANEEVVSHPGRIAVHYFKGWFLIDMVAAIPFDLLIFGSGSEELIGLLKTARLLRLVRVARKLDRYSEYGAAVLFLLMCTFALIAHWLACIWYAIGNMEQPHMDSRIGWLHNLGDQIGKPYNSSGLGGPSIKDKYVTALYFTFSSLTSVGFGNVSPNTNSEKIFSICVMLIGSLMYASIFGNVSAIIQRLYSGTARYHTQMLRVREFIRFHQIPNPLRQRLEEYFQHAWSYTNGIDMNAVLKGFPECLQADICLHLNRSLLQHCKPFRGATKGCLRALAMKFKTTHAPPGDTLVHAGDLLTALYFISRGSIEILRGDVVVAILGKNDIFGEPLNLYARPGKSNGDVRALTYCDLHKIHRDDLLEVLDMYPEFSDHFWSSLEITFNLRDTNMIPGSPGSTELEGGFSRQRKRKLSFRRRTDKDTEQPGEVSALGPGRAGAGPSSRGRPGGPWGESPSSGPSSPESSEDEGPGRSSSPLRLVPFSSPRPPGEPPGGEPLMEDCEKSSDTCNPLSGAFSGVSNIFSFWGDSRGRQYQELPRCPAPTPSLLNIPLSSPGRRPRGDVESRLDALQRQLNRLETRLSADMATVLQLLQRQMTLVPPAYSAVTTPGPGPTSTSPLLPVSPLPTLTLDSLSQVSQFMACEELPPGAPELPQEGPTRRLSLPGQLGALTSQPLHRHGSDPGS
row,SMILES,"hERG current change (%, negative = inhibition) at 10uM [%]"
1,COc1ccc(-n2c3c(cc(C(=O)NNc4ccccc4C)c2=O)C(=O)CC(C)(C)C3)cc1,17.7
2,COC(=O)Cc1c(O)ccn(C2CC2)c1=O,17.5
3,COc1ccc(NS(=O)(=O)c2cccc(NC(=O)c3ccc(Cl)nc3)c2)cc1,3.36
4,CC(C)(C)OC(=O)NCCCCCNC(=O)c1[nH]cnc1C(=O)N[C@@H](CCCCNC(=O)OC(C)(C)C)C(=O)OC(C)(C)C,17.5
5,O=c1[nH]c2ccccc2c2nc3ccccn3c12,-10.4
6,CCC(=O)Nc1cc(C(=O)O)ccc1Sc1ccc(C)cc1,4.85
7,CCSc1nnc(NC(=O)C(CC)(C(F)(F)F)C(F)(F)F)s1,17.7
8,CCOc1ccc(-n2c(O)c(C=NCCN(CC)CC)c(=O)[nH]c2=O)cc1,16.8
9,O=C(CN1C(=O)c2cccnc2Oc2ccc(Cl)cc21)N1CCCC1,6.5
10,COc1ccc(-c2noc(CNC(=O)CCCN3C(=O)[C@H]4CC=CC[C@H]4C3=O)n2)cc1,12.7
11,CC1CCCCN1C(=O)COC(=O)c1ccc2c(c1)C(=O)N(Cc1ccco1)C2=O (stereo not drawn),-34.9
12,CCOC(=O)CSc1nc2ccc(N)cc2s1,-1.21
13,Cc1cccc2cc(C(c3nnnn3CC3CCCO3)N3CCc4ccccc4C3)c(=O)[nH]c12 (stereo not drawn),-21.9
14,CC1CCCCC1NC(=O)C(Cc1ccccc1)NS(=O)(=O)c1cccs1 (stereo not drawn),-13.6
15,CCOC(=O)C1CCN(C(=O)Nc2ccc3snnc3c2)CC1,-1.57
16,COc1ccc2c(c1OC)C(=O)OC2Nn1cncn1 (stereo not drawn),5.89
17,COc1ccc(OCc2cc(C(=O)NC(C)Cn3cncn3)no2)c(Cl)c1 (stereo not drawn),-2.32
18,CC(C)(C)C1N=C(c2ccc3ccccc3c2)OC1=O (stereo not drawn),13.7
19,COc1ccc(C)cc1Nc1cc(C)nc2ncnn12,4.53
20,Cc1ccc2cc(C)c(N3CCC(C)CC3)nc2c1,11.6
21,c1ccc([C@H]2CN3C(=N2)Sc2ccccc23)cc1,-19.2
22,CCN(CC)c1ccc(C(=O)NNC(=O)CCl)cc1.Cl,2.07

row,SMILES,"hERG current change (%, negative = inhibition) at 10uM [%]"
1,CCCn1nnnc1NC(=O)c1ccc(C)cc1Cl,5.02
2,Cc1cc2cc(CCNC(=O)CC(C)(C)C)c(=O)[nH]c2cc1C,7.53
3,COc1ccc(CCC(=O)N2CCCSC2=Nc2ccc(C(C)=O)cc2)cc1,-7.97
4,COc1ccc(CNC(=O)C2CCCN(c3nc4ccccc4o3)C2)c(OC)c1 (stereo not drawn),-24.8
5,COc1ccc(C2NC(C(=O)O)Cc3c2[nH]c2ccccc32)cc1CN1CCN(c2ccc(F)cc2)CC1 (stereo not drawn),-11.6
6,COc1ccc(C(=O)COc2ccc(F)cc2)c(O)c1C,16
7,N#Cc1ccc(S(=O)(=O)N2CCN(CC(=O)NCC3(N4CCOCC4)CCCCC3)CC2)cc1,-15.8
8,CS(=O)(=O)c1cnc2c(S(=O)(=O)c3ccccc3)cnn2c1N,-2.94
9,COc1ccc(-n2nc(C(=O)NCC(=O)NCc3ccccc3OC)c3ccccc3c2=O)c(OC)c1,7.07
10,CCOC(=O)c1c(C)[nH]c(C(=O)COC(=O)C2CC(=O)N(Cc3ccccc3)C2)c1C (stereo not drawn),-18.2
11,COc1ccc(CCNC(=O)c2cc(-c3ccncc3)nc3c(Cl)cccc23)cc1OC,-66.9
12,CC1CN(C)C(C)CC1OC(=O)C(c1ccccc1)c1ccccc1 (stereo not drawn),-73.7
13,Cl.OC(COCC1COc2ccccc2O1)CN1CCN(c2ccc(F)cc2)CC1 (stereo not drawn),-79.3
14,Cc1ccc(S(=O)(=O)N(CC(=O)Nc2ccccc2C(=O)O)c2ccc(Cl)cc2)cc1,13.6
15,CCN1C=C(Cc2ccc(OC)cc2)C2=C(C1)C(c1ccc(OC)cc1)C(C#N)=C(N)O2 (stereo not drawn),-20.4
16,CN(CC(=O)Nc1ccccc1Br)CC(=O)Nc1ccccc1-c1ccccc1,-42
17,O=C(CCc1ccccc1)NNC(=O)Nc1ccc(Br)cc1,-15.5
18,COc1oc(-c2ccccc2C)nc1C(F)(F)F,2.37
19,O=C(NC1CCCC1)C(c1c(F)cccc1Cl)N(C(=O)c1csnn1)C1CC1 (stereo not drawn),12.1
20,CC1COC(C)(CC(=O)NN2C(=O)c3ccccc3C2=O)O1 (stereo not drawn),9.76
21,CN(C)C(=O)c1ccc(NC(=O)c2cc(-c3ccco3)nc3ccccc23)cc1,9.18
22,COc1ccc(C(=O)NCc2ccc3c(c2)OCO3)cc1S(=O)(=O)N1CCCC1,-39

row,SMILES,"hERG current change (%, negative = inhibition) at 10uM [%]"
1,C=CCSc1nsc(NC(=O)Nc2ccc(F)cc2)n1,22.1
2,CN(CC(=O)Nc1ccc(S(=O)(=O)N2CCCC2)cc1)Cc1cccc(Cl)c1Cl,4.15
3,COc1ccccc1CNC(=O)COC(=O)c1ccc(S(=O)(=O)N2CCCC2)cc1,2.79
4,CCc1cccc(C)c1NC(=O)c1cc(C)oc1C,1.85
5,COCCCn1c(SCc2nc3ccccc3c(=O)[nH]2)nc2ccccc2c1=O,-24.7
6,O=[N+]([O-])c1ccc2nc(NS(=O)(=O)c3ccc(Cl)cc3)sc2c1,-2.1
7,COC(=O)CCCC(=O)N1CCCC(C(=O)c2ccc(-c3ccccc3)cc2)C1 (stereo not drawn),-12
8,CC(=O)Nc1ccc(C(=O)N/N=C/c2ccccc2OC(=O)c2ccc(Cl)cc2)cc1,1.42
9,CCCNC(=O)c1cn(CC)c2cc(N3CCN(C)CC3)c(F)cc2c1=O,9.26
10,O=C(N/N=C\c1ccc(Cl)cc1Cl)c1sccc1-n1cccc1,-0.158
11,S=C(NCCCN1CCOCC1)Nc1cccc(Cl)c1,-10.6
12,Cc1ccc(C(=O)N2CC=C(c3ccccc3)CC2)o1,-12.7
13,C[C@@H](CSc1ccccc1)CN1CC[C@H](C(C)(C)C)CCC1=O,1.34
14,Cc1ccc(S(=O)(=O)NCC(=O)OCC(=O)NC(=O)NC2CCCC2)cc1,16.6
15,CCn1c(SCC(=O)N/N=C\c2ccccc2OCC(=O)O)nnc1-c1ccc(Cl)cc1,-1.56
16,CN(C1CCCCC1)S(=O)(=O)c1ccc(S(=O)(=O)N2CCN(C(=O)c3ccccc3F)CC2)cc1,-12.2
17,CC(C)Oc1cc(NC(=O)CS(=O)CC(=O)Nc2cccc(C(F)(F)F)c2)c(Cl)cc1Cl (stereo not drawn),2.95
18,Cn1nc(C(F)(F)F)c(/C=N/OC(=O)c2ccccc2)c1Cl,3.92
19,Cc1cc(OCC(=O)O/N=C(\N)c2ccccc2)ccc1Cl,19.3
20,O=C(NCc1ccco1)/C(=C/c1ccc(F)cc1)NC(=O)c1ccccc1,-14.1
21,Cc1ccccc1C(=O)Oc1ccc(Br)cc1C(=S)N1CCCC1,-1.75
22,c1ccc(C2N3CCCN23)cc1 (stereo not drawn),12.9

row,SMILES,"hERG current change (%, negative = inhibition) at 10uM [%]"
1,Fc1ccccc1CCNc1nnnn1-c1ccccc1,10.1
2,Cc1nc(C(=O)Nc2ccc(Cl)cc2)sc1C1(C)CC(c2cccc([N+](=O)[O-])c2)=NO1 (stereo not drawn),-16.8
3,O=C(O)Cn1c(=O)c2c3c(sc2n(Cc2ccc(Cl)cc2Cl)c1=O)CCCC3,-4.17
4,CS(=O)(=O)c1cccc(-c2csc(N3CCC(C(N)=O)CC3)n2)c1.O=C(O)C(F)(F)F,-22.5
5,Cc1ccc(CN2C(=O)CSc3ccc(C(=O)NC4CC4)cc32)cc1,-10.7
6,Cc1ccc(C(=O)NCc2ccccc2)cc1Br,-1.73
7,CCOC(=O)c1ccc(NC(=S)N2CCC(O)CC2)cc1,18
8,CN(C)S(=O)(=O)c1cc(NC(=O)CN2CCN(c3ccccc3F)CC2)ccc1Cl,5.43
9,N#Cc1cc(Br)ccc1N=C1CCCN1c1ccccc1,-9.61
10,COC(=O)CCCC1=CC2=CC(=O)C(C)(OC(=O)c3ccc(Cl)nc3)C(=O)C2=CO1 (stereo not drawn),10.4
11,CCc1nnc(NC(=O)CSc2ncc(-c3ccccc3)n2C)s1,-0.226
12,CSc1ccc(S(=O)(=O)NCCCOC(C)C)cc1,-0.0722
13,COC(=O)CCNC(=O)CCc1ccc(S(=O)(=O)N2CCCCCC2)cc1,-12.1
14,CC(NC(=O)c1cccc(Br)c1)c1ccccc1 (stereo not drawn),-2.43
15,Cl.OC(COc1c(F)cc(Br)cc1F)CN1CCOCC1 (stereo not drawn),2.28
16,C/C(=N\Nc1nc2ccccc2s1)c1cccs1,32.4
17,Cc1ccsc1CN(C)C(=O)CN1C(=O)NC2(CCCc3ccccc32)C1=O (stereo not drawn),-29.6
18,COc1ccc(-n2nc(C(=O)NCC(=O)N3CCC(C)CC3)c3ccccc3c2=O)c(OC)c1,-4.75
19,CC1(C)Cc2c(cnn2-c2cccc(F)c2)C(NC(=O)CN2CCCC2=O)C1 (stereo not drawn),8.24
20,CC1=CC(C)C(C(=O)O)C(C(=O)O)C1 (stereo not drawn),35.3
21,Cc1cc(NC(=O)CN2CCN(c3ncccn3)CC2)no1.Cl,8.63
